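1) Cells in 96-well plates. 2) Compound, 48 h, 5 concentrations. 3) Linear interpolation between surrounding doses. 4) Unreached endpoint = highest concentration. The concentration for 50% growth inhibition is given as GI50.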 Active and inactive are the calls of the source. No stated cut-off is given here; in the data, active = GI50 up to about 1.1 µM and inactive = higher.
Tested on: NCI-H322M
Test: NCI tumour cell line growth inhibition, 48 h

Row | Structure (SMILES) | GI50
1 | O=C1c2cccc([N+](=O)[O-])c2C(=O)N1c1ncn[nH]1 | inactive: > 100 µM
2 | Cc1cc(O)c(C(C)C)cc1CN1CCCCC1 | inactive: > 100 µM
3 | Nc1cc(C(=O)O)nc(O)n1 | inactive: > 100 µM
4 | O=C(O)CCc1c2ccc(=O)c(O)c-2oc2c(O)c(O)ccc12 | inactive: 33.9 µM
5 | O=C(c1ccc(Cl)cc1)N(C(=S)OCCOc1ccccc1)c1ccccc1 | inactive: 21.4 µM
6 | O=C(c1cccs1)N(C(=S)OCCOc1ccccc1)c1ccccc1 | inactive: 36.3 µM
7 | COc1ccc(CN(CCc2c[nH]c3ccccc23)Cc2ccc(OC)cc2)cc1 | inactive: 3.29 µM
8 | O=S(=O)(c1ccc2ccccc2c1)N1CCN(S(=O)(=O)c2ccc3ccccc3c2)CC1 | inactive: > 100 µM
9 | CCCCNc1c(CN)cnc2cc(Cl)ccc12 | inactive: 17.1 µM
10 | O=C(/N=C1/OC(CN2CCOCC2)CN1C(=O)Nc1ccccc1)Nc1ccccc1 (configuration not stated) | inactive: > 100 µM
11 | CCOc1ccc2nc(NC(=O)/C(CC(=O)CC(C3=C(O)c4ccccc4CC3=O)c3ccccc3)=N\O)sc2c1 (configuration not stated) | inactive: > 100 µM
12 | N#CC(C#N)=C(N)/C(C#N)=C/c1ccc2ccccc2n1 | inactive: > 100 µM
13 | Cc1cc(NS(=O)(=O)c2ccc(Nc3c4ccccc4nc4c(C(=O)Nc5ccc(S(N)(=O)=O)cc5)cccc34)cc2)no1 | inactive: 25.2 µM
14 | NNC(=O)c1cc(Cl)ccc1NC(=O)C12CC3CC(CC(C3)C1)C2 | inactive: 21.5 µM
15 | CCCNC1=Nc2ccccc2NC(C)C1 (configuration not stated) | inactive: > 100 µM
16 | CC[C@H]1OC([C@H](O)C/C=C\C#C[Si](C)(C)C)C/C=C\C[C@H]1O[Si](C)(C)C(C)(C)C (some centres not stated) | inactive: > 100 µM
17 | C[N+](C)(C)CC1Cc2ccccc2C1=O (configuration not stated) | inactive: > 10 µM
18 | CCC(c1ccc2cc(O)ccc2c1)C(C)(C)C(=O)O (configuration not stated) | inactive: > 100 µM
19 | CC1(C)C2CCC(N)(C2)C1O (configuration not stated) | inactive: > 100 µM
20 | CCn1c(SC(C)C(=O)c2c(C)n(C)n(-c3ccccc3)c2=O)nc2ccccc2c1=O (configuration not stated) | inactive: > 100 µM
21 | CC(=O)O[C@@H]1CC[C@@]2(C)C(CC[C@H]3[C@@H]4CC[C@H]([C@H](C)CCc5nc6cc(C)ccc6[nH]5)[C@@]4(C)CC[C@@H]32)C1 (some centres not stated) | inactive: 32.2 µM
22 | N#CC1CC2(C(=O)C1=O)c1ccccc1-c1ccccc12 (configuration not stated) | inactive: > 100 µM
23 | O=C1c2ccccc2OCC12OC21C=CC(Cl)=CC1 (configuration not stated) | inactive: 24.9 µM
24 | O=C(CC(=O)N1N=C(c2ccccc2)C(/N=N/c2ccc(Cl)cc2)C1=O)Nc1ccccc1Cl (configuration not stated) | inactive: 29.2 µM

Row | Structure (SMILES) | GI50
25 | Cc1ccc2nc(-c3ccc(N4C(=O)C(Cl)C4c4ccc(Cl)cc4)cc3)sc2c1 (configuration not stated) | inactive: 19 µM
26 | CN(C)CCNC(=O)c1cccc2ncc(-c3ccccc3)nc12 | inactive: 8.49 µM
27 | O=C(Nc1ccc(Cl)cc1)c1cc(S(=O)(=O)Nc2n[nH]c(=O)n2-c2ccccc2)c(S)cc1Cl | inactive: > 100 µM
28 | O=C1/C(=C/c2cccc([N+](=O)[O-])c2)N=C(c2ccccc2)N1c1nc2c(Cl)cc(Cl)cc2s1 | inactive: 34.5 µM
29 | CO[C@H](C)[C@](O)(C(=O)OCC1=CCN2CC[C@@H](O)[C@H]12)C(C)C | inactive: > 100 µM
30 | Cc1cccc2c(N)c3cccc(C(=O)NCC[N+]4(Cc5ccc([N+](=O)[O-])cc5)CCOCC4)c3nc12 | inactive: 41.7 µM
31 | COC(=O)c1cc(=O)nc2sc3cccc(C)c3n12 | inactive: 53.7 µM
32 | C#CCN(N=O)C(=O)NCCCCC(NC(C)=O)C(=O)NCc1ccccc1 (configuration not stated) | inactive: > 100 µM
33 | CC(=O)NC1=C(NC(C)(C)C)C(=O)c2ccccc2C1=O | inactive: > 100 µM
34 | CNC(=O)/C(C#N)=C(\N)N1CCCC1 | inactive: > 100 µM
35 | CC(C)N(C(=O)C12C3C4C1C1C4(C#N)C3C12C#N)C(C)C (configuration not stated) | inactive: > 100 µM
36 | CC(C)(C)N/N=C(\Cc1occc(=O)c1O)C(=O)Nc1ccc([N+](=O)[O-])cc1[N+](=O)[O-] | inactive: > 100 µM
37 | CC1(S)CC2C(CC1Sc1ccccc1)C2(C)C (configuration not stated) | inactive: > 100 µM
38 | C=CCSC(C)=O | inactive: > 100 µM
39 | COc1ccc(/C=C2\N/C(=N\N=C/C(O)C(O)C(O)C(O)CO)NC2=O)cc1 (configuration not stated) | inactive: > 100 µM
40 | O=C1C(Cl)=C(NCCF)C(=O)c2ncccc21 | inactive: 1.56 µM
41 | COc1cc(CNc2nc3ccccc3n2Cc2ccccc2)cc(CN2CCOCC2)c1O | inactive: 11.5 µM
42 | COc1ccc(OC(C(=O)O)C(C)C)c2c1CCCC2=O (configuration not stated) | inactive: > 100 µM
43 | O=c1[nH]cnc2c1sc1nc3ccccc3n12 | inactive: > 100 µM
44 | c1ccc2c(c1)SP1Sc3ccccc3P21 (configuration not stated) | inactive: > 100 µM
45 | CCCOC(=O)C1CCC(=O)N1C(=O)C(C)Cl (configuration not stated) | inactive: > 100 µM
46 | O=C1CCCN1C(=O)CS(=O)(=O)c1ccccc1 | inactive: > 100 µM
47 | COCN1C(=O)[C@@H]2CCCN2C(=O)c2cc(Cl)ccc21 | inactive: > 100 µM

Source: ChEMBL document CHEMBL1201862, “PubChem BioAssay data set” (2004)
